Assay results from ChEMBL document CHEMBL4689842, “EUbOPEN Chemogenomics Library wave 1” (2021).
Not every entry of the source has a single result; some have several. This list holds those alone. An entry can have further records. Results that share an entry repeat one measurement (runs, samples, wells, individuals or studies).

Assays:
Assay type in all cases: toxicity, cell-based
Fibroblast = assay: Multiplex assay against human fibroblast
Procedure, shortened: (§1)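 Per cents of healthy-nucleus cells form the tubulin, mitochondrial-mass and membrane-permeability phenotype values. Live cells were stained at seeding with Hoechst33342, BioTracker Green Microtubule Cytoskeleton Dye, MitoTracker Red and Annexin V Alexa Fluor 680. After compound addition they were imaged on a CQ1 microscope at 37°C and 5% CO2, and CellPathfinder machine-learning gating split them into Hoechst high-intensity objects or normal cells, normal cells into healthy, pyknosed or fragmented nuclei, and pyknosed cells into mitotic or apoptotic.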

U2OS = assay: Multiplex assay against U2OS; settings: human; procedure, shortened: as §1
HEK-293T = assay: Multiplex assay against HEK293T; settings: human; procedure, shortened: as §1;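 on Population Tubulin-Different-Phenotype (%): share of the cells with healthy nuclei that show this phenotype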
[1] = 12 h, 10 µM, compound concentration 10 uM, replicate 2
[2] = 24 h, 10 µM, compound concentration 10 uM, replicate 2
[3] = 24 h, 10 µM, compound concentration 10 uM, replicate 1
[4] = 12 h, 10 µM, compound concentration 10 uM, replicate 1
[5] = 12 h, 1 µM, compound concentration 1 uM, replicate 2
[6] = 24 h, 1 µM, compound concentration 1 uM, replicate 2
[7] = 12 h, 1 µM, compound concentration 1 uM, replicate 1
[8] = 24 h, 1 µM, compound concentration 1 uM, replicate 1
[9] = 48 h, 1 µM, compound concentration 1 uM, replicate 2

## Cc1sc2c(c1C)C(c1ccc(Cl)cc1)=N[C@@H](CC(=O)OC(C)(C)C)c1nnc(C)n1-2
Fibroblast; [1]
  Population Mitochondria Different-Phenotype (%): 7% and 31%
  Population Tubulin-Different-Phenotype (%): 5% and 18%
Fibroblast; [2]
  Population Membrane Permeable-Phenotype (%): 27% and 5%
U2OS; [1]
  Total Cell Count: 193 and 1392
U2OS; [3]
  Total Cell Count: 2033 and 200
U2OS; [2]
  Total Cell Count: 175 and 1354

## CCn1c(=O)c(-c2ccc(Cl)cc2Cl)cc2cnc(Nc3ccc(N4CCNCC4)c(F)c3)nc21
Fibroblast; [4]
  Population Membrane Permeable-Phenotype (%): 15%, 5%, 2%
  Population Tubulin-Different-Phenotype (%): 26%, 42%, 9%
  Total Cell Count: 218, 844, 485
Fibroblast; [1]
  Population Apoptotic (%): 100%, 25%, 78%
  Population Membrane Permeable-Phenotype (%): 71%, 31%, 14%
  Population Mitochondria Different-Phenotype (%): 85%, 26%, 14%
  Population Mitotic Cells (%): 0%, 75%, 21%
  Population Pyknosed Nuclei (%): 36%, 7%, 19%
  Population Tubulin-Different-Phenotype (%): 85%, 31%, 28%
Fibroblast; [3]
  Population Membrane Permeable-Phenotype (%): 38%, 15%, 3%
Fibroblast; [2]
  Population Membrane Permeable-Phenotype (%): 92%, 25%, 18%
  Population Mitochondria Different-Phenotype (%): 92%, 25%, 0%
  Population Mitotic Cells (%): 0%, 28%, 26%
  Population Tubulin-Different-Phenotype (%): 84%, 8%, 12%
HEK-293T; [4]
  Population Apoptotic (%): 79%, 61%, 22%
  Population Healthy Nuclei (%): 4%, 31%, 54%
  Population Mitochondria Different-Phenotype (%): 40%, 36%, 10%
  Population Mitotic Cells (%): 20%, 38%, 77%
  Total Cell Count: 252, 812, 602
HEK-293T; [1]
  Population Apoptotic (%): 96%, 38%, 12%
  Population Fragmented Nuclei (%): 24%, 11%, 7%
  Population Healthy Nuclei (%): 16%, 53%, 84%
  Population Hoechst High Intensity Objects (%): 69%, 62%, 5%
  Population Membrane Permeable-Phenotype (%): 14%, 10%, 3%
  Population Mitochondria Different-Phenotype (%): 85%, 65%, 22%
  Population Mitotic Cells (%): 3%, 61%, 87%
  Population Normal (%): 30%, 37%, 94%
  Population Pyknosed Nuclei (%): 59%, 35%, 8%
  Total Cell Count: 286, 783, 1199
HEK-293T; [3]
  Population Apoptotic (%): 82%, 75%, 27%
  Population Healthy Nuclei (%): 5%, 46%, 62%
  Population Hoechst High Intensity Objects (%): 59%, 58%, 18%
  Population Membrane Permeable-Phenotype (%): 33%, 22%, 8%
  Population Mitochondria Different-Phenotype (%): 16%, 58%, 12%
  Population Mitotic Cells (%): 17%, 25%, 72%
  Population Pyknosed Nuclei (%): 56%, 19%, 17%
  Population Tubulin-Different-Phenotype (%): 16%, 61%, 50%
HEK-293T; [2]
  Population Apoptotic (%): 73%, 100%, 12%
  Population Hoechst High Intensity Objects (%): 60%, 66%, 6%
  Population Membrane Permeable-Phenotype (%): 13%, 5%, 4%
  Population Mitochondria Different-Phenotype (%): 76%, 91%, 11%
  Population Mitotic Cells (%): 26%, 0%, 87%
  Population Pyknosed Nuclei (%): 40%, 27%, 3%
  Total Cell Count: 824, 276, 1537
U2OS; [4]
  Population Fragmented Nuclei (%): 7%, 25%, 17%
  Population Healthy Nuclei (%): 23%, 10%, 71%
  Population Hoechst High Intensity Objects (%): 68%, 54%, 7%
  Population Membrane Permeable-Phenotype (%): 69%, 100%, 8%
  Population Mitochondria Different-Phenotype (%): 38%, 87%, 15%
  Population Mitotic Cells (%): 2%, 10%, 61%
  Population Pyknosed Nuclei (%): 69%, 63%, 11%
  Population Tubulin-Different-Phenotype (%): 61%, 100%, 17%
U2OS; [1]
  Population Healthy Nuclei (%): 18%, 27%, 66%
  Population Hoechst High Intensity Objects (%): 50%, 59%, 19%
  Population Mitochondria Different-Phenotype (%): 85%, 35%, 21%
  Population Mitotic Cells (%): 0%, 11%, 53%
  Population Pyknosed Nuclei (%): 36%, 50%, 14%
  Population Tubulin-Different-Phenotype (%): 85%, 64%, 11%
U2OS; [3]
  Population Healthy Nuclei (%): 7%, 37%, 66%
  Population Hoechst High Intensity Objects (%): 59%, 65%, 10%
  Population Membrane Permeable-Phenotype (%): 100%, 95%, 12%
  Population Mitochondria Different-Phenotype (%): 80%, 68%, 22%
  Population Mitotic Cells (%): 12%, 8%, 39%
  Population Tubulin-Different-Phenotype (%): 100% and 21%
U2OS; [2]
  Population Hoechst High Intensity Objects (%): 44%, 74%, 19%
  Population Membrane Permeable-Phenotype (%): 92%, 93%, 22%
  Population Mitochondria Different-Phenotype (%): 92%, 66%, 27%
  Population Mitotic Cells (%): 0% and 46%
  Population Normal (%): 55%, 25%, 80%

## CC(C)C(=O)Nc1n[nH]c2cc(-c3cccc(NS(=O)(=O)C4CC4)c3)ccc12
Fibroblast; [5]
  Population Membrane Permeable-Phenotype (%): 15% and 3%
  Population Mitochondria Different-Phenotype (%): 5% and 23%
  Population Mitotic Cells (%): 0% and 50%
HEK-293T; [6]
  Population Pyknosed Nuclei (%): 1% and 4%
U2OS; [7]
  Population Hoechst High Intensity Objects (%): 1% and 4%
U2OS; [6]
  Population Membrane Permeable-Phenotype (%): 17% and 4%

## CN1C(=O)c2sccc2N(C)c2nc(Nc3ccc(S(N)(=O)=O)cc3)ncc21
Fibroblast; [1]
  Population Apoptotic (%): 57% and 0%
HEK-293T; [3]
  Population Hoechst High Intensity Objects (%): 4% and 17%
U2OS; [1]
  Population Apoptotic (%): 10% and 33%
U2OS; [2]
  Population Apoptotic (%): 36% and 0%

## COc1cc2nccc(Oc3ccc(NC(=O)Nc4cc(C)on4)c(Cl)c3)c2cc1OC.O
Fibroblast; [5]
  Population Mitochondria Different-Phenotype (%): 5% and 42%
  Population Pyknosed Nuclei (%): 7% and 32%
Fibroblast; [8]
  Population Tubulin-Different-Phenotype (%): 49% and 8%
Fibroblast; [6]
  Population Mitochondria Different-Phenotype (%): 5% and 55%
  Population Pyknosed Nuclei (%): 7% and 27%
  Population Tubulin-Different-Phenotype (%): 15% and 55%
HEK-293T; [7]
  Population Membrane Permeable-Phenotype (%): 24% and 4%
  Population Mitochondria Different-Phenotype (%): 31% and 9%
  Population Tubulin-Different-Phenotype (%): 92% and 15%
HEK-293T; [5]
  Population Membrane Permeable-Phenotype (%): 22% and 3%
  Population Mitochondria Different-Phenotype (%): 48% and 8%
  Population Tubulin-Different-Phenotype (%): 99% and 12%
HEK-293T; [8]
  Population Mitochondria Different-Phenotype (%): 53% and 5%
  Population Tubulin-Different-Phenotype (%): 95% and 18%
HEK-293T; [6]
  Population Apoptotic (%): 18% and 4%
  Population Fragmented Nuclei (%): 3% and 29%
  Population Mitochondria Different-Phenotype (%): 58% and 1%
  Population Pyknosed Nuclei (%): 7% and 2%
  Population Tubulin-Different-Phenotype (%): 99% and 14%
  Total Cell Count: 964 and 3175
U2OS; [7]
  Population Hoechst High Intensity Objects (%): 4% and 1%
  Population Mitochondria Different-Phenotype (%): 51% and 15%
  Population Tubulin-Different-Phenotype (%): 100% and 8%
U2OS; [8]
  Population Fragmented Nuclei (%): 11% and 2%
  Population Hoechst High Intensity Objects (%): 4% and 1%
  Population Mitochondria Different-Phenotype (%): 79% and 11%
  Population Pyknosed Nuclei (%): 25% and 4%
  Population Tubulin-Different-Phenotype (%): 100% and 10%
U2OS; [6]
  Population Mitochondria Different-Phenotype (%): 90% and 22%
  Population Tubulin-Different-Phenotype (%): 97% and 22%

## Cn1cncc1[C@@](O)(COc1ccc(C#N)cc1-c1ccc(OC(F)(F)F)cc1)c1ccc(C#N)cc1 [A-108]
Fibroblast; [4]
  Population Tubulin-Different-Phenotype (%): 67% and 10%
Fibroblast; [1]
  Population Mitochondria Different-Phenotype (%): 10% and 76%
Fibroblast; [3]
  Population Mitochondria Different-Phenotype (%): 42% and 3%
  Population Tubulin-Different-Phenotype (%): 61% and 5%
HEK-293T; [4]
  Population Membrane Permeable-Phenotype (%): 59% and 8%
  Population Tubulin-Different-Phenotype (%): 93% and 8%
HEK-293T; [1]
  Population Membrane Permeable-Phenotype (%): 57% and 2%
  Population Pyknosed Nuclei (%): 19% and 5%
  Population Tubulin-Different-Phenotype (%): 96% and 15%
HEK-293T; [3]
  Population Membrane Permeable-Phenotype (%): 61% and 10%
  Population Pyknosed Nuclei (%): 28% and 9%
  Population Tubulin-Different-Phenotype (%): 95% and 16%
HEK-293T; [2]
  Population Fragmented Nuclei (%): 5% and 26%
  Population Membrane Permeable-Phenotype (%): 64% and 8%
  Population Pyknosed Nuclei (%): 20% and 2%
U2OS; [4]
  Population Fragmented Nuclei (%): 12% and 3%
  Population Tubulin-Different-Phenotype (%): 96% and 25%
U2OS; [1]
  Population Fragmented Nuclei (%): 19% and 6%
  Population Membrane Permeable-Phenotype (%): 28% and 8%
  Population Pyknosed Nuclei (%): 19% and 2%
  Population Tubulin-Different-Phenotype (%): 91% and 27%
U2OS; [3]
  Population Apoptotic (%): 71% and 22%
  Population Tubulin-Different-Phenotype (%): 66% and 21%
U2OS; [2]
  Population Membrane Permeable-Phenotype (%): 35% and 9%
  Population Pyknosed Nuclei (%): 25% and 5%

## Nc1c(C(=O)NCc2ccc(C(=O)NCCCC3CCCCC3)cc2)cnn1-c1ccccc1 [SR-318]
Fibroblast; [5]
  Population Apoptotic (%): 50%, 12%, 0%
  Population Hoechst High Intensity Objects (%): 4%, 26%, 3%
  Population Pyknosed Nuclei (%): 6%, 18%, 4%
Fibroblast; [4]
  Population Membrane Permeable-Phenotype (%): 24%, 9%, 2%
Fibroblast; [1]
  Population Hoechst High Intensity Objects (%): 7% and 1%
  Population Membrane Permeable-Phenotype (%): 10%, 7%, 3%
Fibroblast; [6]
  Population Hoechst High Intensity Objects (%): 5%, 2%, 22%
Fibroblast; [3]
  Population Membrane Permeable-Phenotype (%): 21%, 10%, 4%
Fibroblast; [2]
  Population Hoechst High Intensity Objects (%): 1% and 7%
Fibroblast; [9]
  Population Pyknosed Nuclei (%): 4% and 1%
Fibroblast; 48 h, 10 µM, compound concentration 10 uM, replicate 2
  Population Apoptotic (%): 16%, 50%, 14%
U2OS; [5]
  Population Apoptotic (%): 50%, 12%, 0%
  Population Hoechst High Intensity Objects (%): 4% and 26%
  Population Pyknosed Nuclei (%): 6%, 18%, 4%
U2OS; [6]
  Population Hoechst High Intensity Objects (%): 5%, 2%, 22%
U2OS; [9]
  Population Hoechst High Intensity Objects (%): 4%, 1%, 16%
